Assay results taken from PubChem BioAssay AID1347165 (National Center for Advancing Translational Sciences (NCATS), 2019).
Hit rate of the full screen: of about 220,000 compounds, about 5,700 (2.6%) were called active. The shares of active, inactive and inconclusive entries below differ from those in the screen. Calls follow the shape of the dose curve; as a rule, active = well fitted inhibition curve with a large enough effect; inconclusive = small, poorly fitted or top-dose-only effect; inactive = no such curve, though single readings can be large or run the other way. Where the call is inconclusive, the potency comes from a doubtful curve fit.

The molecules below were run against Lysine-specific demethylase 5B (Homo sapiens) (UniProt Q9UGL1) (assay: Primary screen for KDM5B Histone Demethylases FDH-coupled qHTS). Conditions: FDH-coupled NADH fluorescence (FDH is formaldehyde dehydrogenase); activity change, negative = inhibition: at 57.7 µM (top of the series) unless noted.
In short: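 Measured: NADH fluorescence change, 30 min, RT. System: KDM5BΔAP 200 nM final, H3K4me3 peptide, α-KG, Fe(II), ascorbate, NAD⁺ plus FDH, pH 7.5 HEPES. Compounds: titrated, 10 min pre-incubation with enzyme.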
Also: nearly all actives have a fitted effect of over 70% in size.
For activity change, negative = inhibition in this document: 0% is about no effect.
Potency is read from the fitted curve at half-maximal effect; tags tell the direction and shape of the fitted curve.

UniProt Q9UGL1, sequence (Q9UGL1 whole entry, looked up): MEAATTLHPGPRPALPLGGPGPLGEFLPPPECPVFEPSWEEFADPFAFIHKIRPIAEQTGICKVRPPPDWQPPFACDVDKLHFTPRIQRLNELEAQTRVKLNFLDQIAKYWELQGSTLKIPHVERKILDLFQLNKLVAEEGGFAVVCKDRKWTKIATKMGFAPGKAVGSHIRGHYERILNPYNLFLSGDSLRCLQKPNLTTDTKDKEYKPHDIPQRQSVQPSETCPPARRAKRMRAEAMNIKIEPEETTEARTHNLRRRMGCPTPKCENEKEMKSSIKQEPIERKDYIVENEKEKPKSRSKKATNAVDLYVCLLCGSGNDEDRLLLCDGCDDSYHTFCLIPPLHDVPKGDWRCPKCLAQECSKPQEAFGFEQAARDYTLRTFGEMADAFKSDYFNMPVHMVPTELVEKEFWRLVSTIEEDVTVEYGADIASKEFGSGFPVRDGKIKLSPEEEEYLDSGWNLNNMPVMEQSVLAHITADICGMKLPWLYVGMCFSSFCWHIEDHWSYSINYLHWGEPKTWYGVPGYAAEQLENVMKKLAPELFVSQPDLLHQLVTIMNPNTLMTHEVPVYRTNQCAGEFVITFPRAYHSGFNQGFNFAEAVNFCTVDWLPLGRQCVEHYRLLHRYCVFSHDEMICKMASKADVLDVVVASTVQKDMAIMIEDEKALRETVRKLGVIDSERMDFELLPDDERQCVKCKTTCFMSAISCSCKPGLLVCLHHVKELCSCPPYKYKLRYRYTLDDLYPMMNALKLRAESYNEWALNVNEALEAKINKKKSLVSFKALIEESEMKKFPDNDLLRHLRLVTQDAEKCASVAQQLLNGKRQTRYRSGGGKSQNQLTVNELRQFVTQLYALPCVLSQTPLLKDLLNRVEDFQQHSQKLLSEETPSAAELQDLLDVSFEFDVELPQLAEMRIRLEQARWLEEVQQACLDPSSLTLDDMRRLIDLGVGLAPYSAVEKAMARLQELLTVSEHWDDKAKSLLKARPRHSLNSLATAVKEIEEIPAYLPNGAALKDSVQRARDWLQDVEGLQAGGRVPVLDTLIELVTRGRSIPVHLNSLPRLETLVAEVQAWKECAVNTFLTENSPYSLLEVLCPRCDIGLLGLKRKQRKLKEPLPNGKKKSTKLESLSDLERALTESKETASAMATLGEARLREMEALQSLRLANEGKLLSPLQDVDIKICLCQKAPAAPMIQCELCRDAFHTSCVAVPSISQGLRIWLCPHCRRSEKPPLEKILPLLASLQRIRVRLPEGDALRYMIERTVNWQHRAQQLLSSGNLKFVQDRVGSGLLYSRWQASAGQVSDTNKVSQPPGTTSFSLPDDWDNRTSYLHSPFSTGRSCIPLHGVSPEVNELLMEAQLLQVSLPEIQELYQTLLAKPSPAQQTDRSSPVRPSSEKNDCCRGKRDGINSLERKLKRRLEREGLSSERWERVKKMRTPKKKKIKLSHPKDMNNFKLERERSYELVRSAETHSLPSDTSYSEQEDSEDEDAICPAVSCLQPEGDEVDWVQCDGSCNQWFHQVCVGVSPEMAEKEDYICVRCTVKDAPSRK

Structure (SMILES) | Potency | activity change, negative = inhibition
O=C(CSc1ccc2nc(-c3ccccc3)cn2n1)Nc1cccc(F)c1 | inconclusive: 31.6 µM [inhibitor, partial curve, poor fit] | 
COc1ccc(S(=O)(=O)NCCO)c2ccccc12 | inconclusive: 22.4 µM [inhibitor, partial curve, poor fit] | 
CC(=O)c1c(C)[nH]c(C(=O)COc2ccc3ccc(=O)oc3c2)c1C | inconclusive: 22.4 µM [inhibitor, partial curve, poor fit] | 
COc1cccc(N2C(=O)NC(=NC3CCCCC3)C23CCCN(CC2CCCCC2)C3)c1 (configuration not stated) | inconclusive: 56.2 µM [inhibitor, partial curve, poor fit] | 
O=C(NCC(c1cccs1)N1CCCC1)c1nn(Cc2ccccc2)c(=O)c2ccccc12 (configuration not stated) |  | inactive: 3.53%
CCOc1ccc(C(=O)CC2(O)C(=O)Nc3ccc(Cl)cc32)cc1 (configuration not stated) |  | inactive: 13.8%
COc1cc(C(=O)N2CC[C@@]3(O)CCN(S(C)(=O)=O)C[C@H]3C2)ccn1 |  | inactive: -2.16%
O=C(Nc1cccnc1)c1nc2c(o1)CCN(CCCc1ccccc1)CC2 | inconclusive: 25.1 µM [inhibitor, partial curve] | 
COc1cccc(CNC[C@H]2O[C@H](Cc3cc(-c4ccccn4)on3)CC[C@@H]2O)c1 |  | inactive: 18% [at 86.2 µM]
Cc1ccc(CN(Cc2ccco2)C(=O)c2ccc(Cl)cc2)o1 | inconclusive: 1.41 µM [inhibitor, full curve, poor fit] | 
COc1ccc(CNC(=O)c2nccnc2N)cc1OC |  | inactive: -0.795%
COc1ccc2c(C)c(CCC(=O)Nc3ccc(C)cc3O)c(=O)oc2c1 | inconclusive: 22.4 µM [inhibitor, partial curve, poor fit] | 
CC1=C(C(=O)Nc2ccc(Cl)cc2)C(c2ccc(C(F)(F)F)cc2)n2nnnc2N1 (configuration not stated) | inconclusive: 25.1 µM [inhibitor, partial curve, poor fit] | 
Cc1cn2nc(C(=O)NCCC3=CCCCC3)cc2c(N2CCCC2)n1 | active: 10 µM | 
Cc1cc(C)cc(C(=O)NC(C)C(=O)N2CCN(c3ccccn3)CC2)c1 (configuration not stated) | inconclusive: 25.1 µM [inhibitor, partial curve, poor fit] | 
COC(=O)c1cnn(-c2ccc(C(=O)Nc3cc(OC)c(OC)c(OC)c3)cc2)c1N |  | inconclusive: -32.7% [inhibitor]
COc1ccc(-c2cc(-c3cccc4[nH]ncc34)cn3cncc23)cn1 | inconclusive: 5.01 µM [inhibitor, full curve, poor fit] | 
CC(NC(=O)CNC(N)=O)c1cccc(C(F)(F)F)c1 (configuration not stated) |  | inactive: 20.5%
Cc1cc(CNC(=O)c2cc(-c3cccnc3)cc3c2OCCN3C)no1 | inconclusive: 31.6 µM [inhibitor, partial curve] | 
Cc1cc(OC(=O)c2ccc(CSc3ccc(Cl)cc3)cc2)ccc1C(C)C |  | inactive: 6.67%
COc1ccc(-c2nc(SCC(=O)N3CCCCC3C)n[nH]2)cc1 (configuration not stated) | inconclusive: 28.2 µM [inhibitor, partial curve, poor fit] | 
CCCn1nc(C(=O)Nc2ncc(Cc3cccc(Cl)c3)s2)ccc1=O |  | inactive: -0.0845%
COc1ccc(CN2CCOc3nc(-c4cccc(C(F)(F)F)c4)ncc3C2=O)cc1 |  | inactive: -14.6% [at 86.2 µM]

Structure (SMILES) | Potency | activity change, negative = inhibition
COc1ccc(C(C)=O)cc1COC(=O)Cc1ccc(Cl)cc1 |  | inactive: 17.4%
O=C(Nc1c(C(=O)N2CCN(c3ccccc3F)CC2)oc2ccccc12)c1c(F)cccc1F | inconclusive: 39.8 µM [inhibitor, single point] | 
CCC1CCCCN1C(=O)Cn1c(=O)cc(C(F)(F)F)c2c(C)nn(C)c21 (configuration not stated) | inconclusive: 31.6 µM [inhibitor, partial curve, poor fit] | 
CCOC(=O)COc1c(Cl)cc(/C=C2\N=C(C)OC2=O)cc1OC | inconclusive: 39.8 µM [inhibitor, partial curve, poor fit] | 
Cc1ccc(C2=CC(c3ccccc3C)n3nnnc3N2)cc1 (configuration not stated) |  | inactive: -4.36%
COc1cccc(/C=C/C(=O)c2cccc(O)c2)c1 | inconclusive: 39.8 µM [inhibitor, single point] | 
CCCN1CCCC12Cc1ccccc1CN(C(C)=O)C2 (configuration not stated) | inconclusive: 56.2 µM [inhibitor, partial curve] | 
CC(C)(C)C1CCC2(CC1)NC(=O)N(CC(=O)N1CCCCC1)C2=O (configuration not stated) |  | inactive: 17.3%
Cc1ccccc1N1Cc2c(NCCc3ccc(Cl)cc3)ncnc2N(C)CC1=O | inconclusive: 35.5 µM [inhibitor, partial curve, poor fit] | 
O=C(c1ccccc1)N1CCN(c2nc3ncccc3o2)CC1 | inconclusive: 31.6 µM [inhibitor, partial curve, poor fit] | 
COc1cccc(CN2CC[C@H](c3nc4cc(Cl)ccc4o3)C2)c1 | inconclusive: 44.7 µM [inhibitor, single point] | 
O=C(NCc1ccccc1)C1CCN(c2nc3ccccc3o2)CC1 |  | inactive: 11.2%
CC(C)c1ccc(OCC(O)CN2CCN(c3ccc(F)cc3)CC2)cc1 (configuration not stated) | inconclusive: 25.1 µM [inhibitor, partial curve, poor fit] | 
CCCN(Cc1ccc(C)cc1)C(=O)CSc1nnc(COc2ccccc2Cl)n1C |  | inactive: -7.68%
COc1ccc(CNC(=O)CCCn2c(=O)c3cccn3c3cccnc32)cc1 | inconclusive: 25.1 µM [inhibitor, partial curve, poor fit] | 
O=S1(=O)NCC2(CCN(Cc3c[nH]c4ccccc34)CC2)Oc2ncccc21 | inconclusive: 56.2 µM [inhibitor, partial curve, poor fit] | 
COc1ccc(C2CC(=O)Nc3c2c(=O)nc(SC)n3C)cc1 (configuration not stated) |  | inactive: 7.81%
Cc1ccc(OCC(=O)c2ccc3c(c2)N(CCCC(=O)NC2CCCCC2)C(=O)CO3)cc1C | inconclusive: 31.6 µM [inhibitor, single point] | 
CC(O)CN1CC2(CCC1=O)CCN(C(=O)c1ccnn1C)CC2 (configuration not stated) |  | inactive: 31.6%
O=C1[C@@H]2C[C@@H](O)CN2C2(CN(Cc3ccccn3)C2)C(=O)N1Cc1ccccc1Cl |  | inactive: -16.8% [at 86.2 µM]
CCOc1ccc(C2Cn3nnc(-c4nc(-c5ccccc5OC)no4)c3CO2)cc1 (configuration not stated) | inconclusive: 25.1 µM [inhibitor, partial curve, poor fit] | 
COc1cccc(CNC(=O)c2c(C)noc2-c2ccccc2OC)c1 | inconclusive: 31.6 µM [inhibitor, single point] | 
N#Cc1ccc(-c2csc(-c3ccncc3)n2)cc1 |  | inactive: -29.5%

Structure (SMILES) | Potency | activity change, negative = inhibition
COc1cccc(-c2cc3c(=O)n(CCNC(=O)c4ccc(C)cc4)ccn3n2)c1 | active: 17.8 µM | 
O=C(NCc1cccs1)c1ccc(Cn2c(SCc3ccc(F)cc3)nc3cccnc32)cc1 | inconclusive: 35.5 µM [inhibitor, partial curve, poor fit] | 
COc1ccc(CN2CCc3nc(C(=O)NCc4ccncc4)oc3CC2)cc1 |  | inactive: -22.2% [at 86.2 µM]
O=C(CSc1nnnn1-c1cccnc1)Nc1ccc(F)cc1F |  | inactive: 33.4%
COc1ccc(-c2noc(CCC(=O)Nc3ccn(C)n3)n2)cc1 |  | inactive: -1.76%
COc1cccc(CCC(=O)N[C@@H]2CN(c3ncccn3)C[C@H]2CO)c1 | inconclusive: 15.8 µM [inhibitor, single point] | 
COc1ccc(-c2cn3c(n2)sc2cc(C(=O)NCCc4ccc(OC)cc4OC)ccc23)cc1 | inconclusive: 8.91 µM [inhibitor, partial curve, poor fit] | 
CCc1ccc2c(c1)-c1ccccc1S(=O)(=O)N2CC(=O)N1CCCCC1 | inconclusive: 31.6 µM [inhibitor, single point] | 
COc1ccc(CCN(C)C2CCCN(c3ncccc3C#N)C2)cc1OC (configuration not stated) | active: 25.1 µM | 
c1ccc(Nc2nc(-c3cccc4ccccc34)cs2)cc1 | inconclusive: 39.8 µM [inhibitor, partial curve, poor fit] | 
CCOCCCN(Cc1ccco1)C(=O)c1cc2c(=O)[nH]c3ccc(C)cc3c2s1 | inconclusive: 31.6 µM [inhibitor, partial curve, poor fit] | 
O[C@@H]1C[C@@H](c2nnc3n2CCN(C2CCCCC2)C3)N(Cc2cccnc2)C1 | inconclusive: 22.4 µM [inhibitor, partial curve, poor fit] | 
COCCCNC(=O)c1cc(Nc2cc(C)cc(C)c2)nc2ccccc12 | inconclusive: 39.8 µM [inhibitor, single point] | 
O=S(=O)(c1ccccc1)c1nnn2c1nc(NCc1ccccc1)c1sccc12 | inconclusive: 1.78 µM [inhibitor, partial curve, poor fit] | 
COc1ccc(/C=C(\C#N)c2nc3ccccc3n2C)c(OC)c1 | inconclusive: 15.8 µM [inhibitor, partial curve, poor fit] | 
Cc1oc2cc(OCC(=O)O)ccc2c(=O)c1-c1ccc(Cl)cc1 | inconclusive: 39.8 µM [inhibitor, single point] | 
CC(C)CN1C(=O)C(C)(C)[S+](=O)([O-])[C@@H]2CN(Cc3ccncc3)C[C@@H]21 | inconclusive: 56.2 µM [inhibitor, single point] | 
CN1CCN(C(=O)c2ccc(-c3ccc(N4CCCCC4)nc3)cc2)CC1 | inconclusive: 28.2 µM [inhibitor, partial curve, poor fit] | 
COC(=O)c1[nH]c2ccc(F)cc2c1C=O | inconclusive: 39.8 µM [inhibitor, single point] | 
CCC(=O)N1c2ccc(S(=O)(=O)CCC(=O)Nc3ccc(Br)c(C)c3)cc2CC1C (configuration not stated) | inconclusive: 39.8 µM [inhibitor, single point] | 
COc1ccccc1CNC(=O)c1cc2c(s1)-c1ccccc1OC2 | inconclusive: 28.2 µM [inhibitor, partial curve, poor fit] | 
